Test results: article PMC12820563, “FoxP3 forms a head-to-head dimer in vivo and stabilizes its multimerization on adjacent microsatellites”
The list shows a part of the results.

target: T1, MBP-FoxP1dN (Mus musculus, UniProt P58462 326-579); assay: PD-seq (MBP pull-down with sequencing); 20 mM Tris-HCl pH 7.5, 100 mM NaCl, 1.5 mM MgCl2, 0.4 uM protein, 0.1 uM dsDNA library, 30 min, room temperature, amylose pull-down; high values mean tight binding; settings: protein: recombinant; tags: His6-MBP; chain copies: 2; dsDNA, one strand shown
T1 sequence: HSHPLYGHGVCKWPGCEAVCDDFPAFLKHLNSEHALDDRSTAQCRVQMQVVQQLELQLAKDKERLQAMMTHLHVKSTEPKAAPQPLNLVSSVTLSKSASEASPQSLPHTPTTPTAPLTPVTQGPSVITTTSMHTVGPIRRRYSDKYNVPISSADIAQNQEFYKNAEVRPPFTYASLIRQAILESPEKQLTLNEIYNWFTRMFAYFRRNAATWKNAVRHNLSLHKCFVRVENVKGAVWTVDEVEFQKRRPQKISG
Outline: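 Binding is the reads-per-million enrichment of pull-down relative to input, pooled across replicates. For this, 0.4 µM His6-MBP-tagged mouse FoxP3 or FoxP1 fragment lacking the N-terminus, made in E. coli, was incubated with 0.1 µM Klenow-filled double-stranded degenerate DNA library for 30 min at room temperature in Tris pH 7.5 buffer with NaCl and MgCl2. Complexes bound to amylose resin were washed three times before proteinase K released the DNA for PCR barcoding and Illumina sequencing.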

Point of comparison: “GATGATTGTTCTCCCAGCTGATGAATTTGGGATTTCGAGTAAACAAATTTTCCTAATCTTTCTGTTCAAGCGCCATCTAC”, binding signal 0.854 RPM ratio (pull-down/input). Against it:
- GATGATTGTTCTCCCAGCTGATGAATTATCCAAATCGAGTAAACAAATTTTCCTAATCTTTCTGTTCAAGCGCCATCTAC — higher, 1.08 RPM ratio (pull-down/input)
- GATGATTGTTCTCCCAGCTGATGAATTGCAACATTCGAGTAAACAAATTTTCCTAATCTTTCTGTTCAAGCGCCATCTAC — higher, 1.75 RPM ratio (pull-down/input)
- GATGATTGTTCTCCCAGCTGATGAATTAATGCCCTCGAGTAAACAAATTTTCCTAATCTTTCTGTTCAAGCGCCATCTAC — higher, 0.983 RPM ratio (pull-down/input)
- GATGATTGTTCTCCCAGCTGATGAATTAACATTGTCGAGTAAACAAATTTTCCTAATCTTTCTGTTCAAGCGCCATCTAC — higher, 1.08 RPM ratio (pull-down/input)
- GATGATTGTTCTCCCAGCTGATGAATTCCCGCATTCGAGTAAACAAATTTTCCTAATCTTTCTGTTCAAGCGCCATCTAC — higher, 1.17 RPM ratio (pull-down/input)
- GATGATTGTTCTCCCAGCTGATGAATTTTGGGCATCGAGTAAACAAATTTTCCTAATCTTTCTGTTCAAGCGCCATCTAC — higher, 1.01 RPM ratio (pull-down/input)
- GATGATTGTTCTCCCAGCTGATGAATTGCTTAGTTCGAGTAAACAAATTTTCCTAATCTTTCTGTTCAAGCGCCATCTAC — higher, 1.02 RPM ratio (pull-down/input)
- GATGATTGTTCTCCCAGCTGATGAATTCTACCGCTCGAGTAAACAAATTTTCCTAATCTTTCTGTTCAAGCGCCATCTAC — lower, 0.79 RPM ratio (pull-down/input)
- GATGATTGTTCTCCCAGCTGATGAATTGGTTTACTCGAGTAAACAAATTTTCCTAATCTTTCTGTTCAAGCGCCATCTAC — higher, 1.24 RPM ratio (pull-down/input)
- GATGATTGTTCTCCCAGCTGATGAATTCTGGGAATCGAGTAAACAAATTTTCCTAATCTTTCTGTTCAAGCGCCATCTAC — higher, 0.916 RPM ratio (pull-down/input)
- GATGATTGTTCTCCCAGCTGATGAATTTGCGATATCGAGTAAACAAATTTTCCTAATCTTTCTGTTCAAGCGCCATCTAC — higher, 1.19 RPM ratio (pull-down/input)
- GATGATTGTTCTCCCAGCTGATGAATTCGATCTATCGAGTAAACAAATTTTCCTAATCTTTCTGTTCAAGCGCCATCTAC — higher, 0.885 RPM ratio (pull-down/input)
- GATGATTGTTCTCCCAGCTGATGAATTGGAACACTCGAGTAAACAAATTTTCCTAATCTTTCTGTTCAAGCGCCATCTAC — higher, 0.927 RPM ratio (pull-down/input)
- GATGATTGTTCTCCCAGCTGATGAATTTGCGCTCTCGAGTAAACAAATTTTCCTAATCTTTCTGTTCAAGCGCCATCTAC — higher, 0.972 RPM ratio (pull-down/input)
- GATGATTGTTCTCCCAGCTGATGAATTAACTACGTCGAGTAAACAAATTTTCCTAATCTTTCTGTTCAAGCGCCATCTAC — higher, 0.969 RPM ratio (pull-down/input)
- GATGATTGTTCTCCCAGCTGATGAATTTAGCAGCTCGAGTAAACAAATTTTCCTAATCTTTCTGTTCAAGCGCCATCTAC — higher, 0.958 RPM ratio (pull-down/input)
- GATGATTGTTCTCCCAGCTGATGAATTATGTTAGTCGAGTAAACAAATTTTCCTAATCTTTCTGTTCAAGCGCCATCTAC — higher, 1.52 RPM ratio (pull-down/input)
- GATGATTGTTCTCCCAGCTGATGAATTTCTGACTTCGAGTAAACAAATTTTCCTAATCTTTCTGTTCAAGCGCCATCTAC — lower, 0.826 RPM ratio (pull-down/input)
- GATGATTGTTCTCCCAGCTGATGAATTGGACTGATCGAGTAAACAAATTTTCCTAATCTTTCTGTTCAAGCGCCATCTAC — lower, 0.841 RPM ratio (pull-down/input)
- GATGATTGTTCTCCCAGCTGATGAATTGCGACGTTCGAGTAAACAAATTTTCCTAATCTTTCTGTTCAAGCGCCATCTAC — higher, 1.07 RPM ratio (pull-down/input)
- GATGATTGTTCTCCCAGCTGATGAATTTCGGTTTTCGAGTAAACAAATTTTCCTAATCTTTCTGTTCAAGCGCCATCTAC — lower, 0.83 RPM ratio (pull-down/input)
- GATGATTGTTCTCCCAGCTGATGAATTTATCACATCGAGTAAACAAATTTTCCTAATCTTTCTGTTCAAGCGCCATCTAC — higher, 1.42 RPM ratio (pull-down/input)
- GATGATTGTTCTCCCAGCTGATGAATTGAAACCTTCGAGTAAACAAATTTTCCTAATCTTTCTGTTCAAGCGCCATCTAC — lower, 0.837 RPM ratio (pull-down/input)
- GATGATTGTTCTCCCAGCTGATGAATTTTTGACTTCGAGTAAACAAATTTTCCTAATCTTTCTGTTCAAGCGCCATCTAC — higher, 0.887 RPM ratio (pull-down/input)
- GATGATTGTTCTCCCAGCTGATGAATTGAGTATGTCGAGTAAACAAATTTTCCTAATCTTTCTGTTCAAGCGCCATCTAC — higher, 1 RPM ratio (pull-down/input)
- GATGATTGTTCTCCCAGCTGATGAATTGACGAACTCGAGTAAACAAATTTTCCTAATCTTTCTGTTCAAGCGCCATCTAC — higher, 1.03 RPM ratio (pull-down/input)
- GATGATTGTTCTCCCAGCTGATGAATTTTGTAAGTCGAGTAAACAAATTTTCCTAATCTTTCTGTTCAAGCGCCATCTAC — higher, 1.02 RPM ratio (pull-down/input)
- GATGATTGTTCTCCCAGCTGATGAATTATGGGGCTCGAGTAAACAAATTTTCCTAATCTTTCTGTTCAAGCGCCATCTAC — lower, 0.8 RPM ratio (pull-down/input)
- GATGATTGTTCTCCCAGCTGATGAATTTATGACATCGAGTAAACAAATTTTCCTAATCTTTCTGTTCAAGCGCCATCTAC — higher, 1.29 RPM ratio (pull-down/input)
- GATGATTGTTCTCCCAGCTGATGAATTCCATAAATCGAGTAAACAAATTTTCCTAATCTTTCTGTTCAAGCGCCATCTAC — higher, 1.09 RPM ratio (pull-down/input)
- GATGATTGTTCTCCCAGCTGATGAATTGCTAATATCGAGTAAACAAATTTTCCTAATCTTTCTGTTCAAGCGCCATCTAC — higher, 1.33 RPM ratio (pull-down/input)
- GATGATTGTTCTCCCAGCTGATGAATTGCCGCGTTCGAGTAAACAAATTTTCCTAATCTTTCTGTTCAAGCGCCATCTAC — higher, 1.02 RPM ratio (pull-down/input)
- GATGATTGTTCTCCCAGCTGATGAATTTCCCGGTTCGAGTAAACAAATTTTCCTAATCTTTCTGTTCAAGCGCCATCTAC — lower, 0.771 RPM ratio (pull-down/input)
- GATGATTGTTCTCCCAGCTGATGAATTGTCGATGTCGAGTAAACAAATTTTCCTAATCTTTCTGTTCAAGCGCCATCTAC — higher, 1.05 RPM ratio (pull-down/input)
- GATGATTGTTCTCCCAGCTGATGAATTTAACTGATCGAGTAAACAAATTTTCCTAATCTTTCTGTTCAAGCGCCATCTAC — higher, 0.923 RPM ratio (pull-down/input)
- GATGATTGTTCTCCCAGCTGATGAATTGTTCGGCTCGAGTAAACAAATTTTCCTAATCTTTCTGTTCAAGCGCCATCTAC — higher, 0.929 RPM ratio (pull-down/input)
- GATGATTGTTCTCCCAGCTGATGAATTTTCCGGTTCGAGTAAACAAATTTTCCTAATCTTTCTGTTCAAGCGCCATCTAC — higher, 0.879 RPM ratio (pull-down/input)
- GATGATTGTTCTCCCAGCTGATGAATTGATTTAGTCGAGTAAACAAATTTTCCTAATCTTTCTGTTCAAGCGCCATCTAC — higher, 1.17 RPM ratio (pull-down/input)
- GATGATTGTTCTCCCAGCTGATGAATTGATCAGCTCGAGTAAACAAATTTTCCTAATCTTTCTGTTCAAGCGCCATCTAC — higher, 0.92 RPM ratio (pull-down/input)
